Laboratory results from PubChem BioAssay AID540267 (National Center for Advancing Translational Sciences (NCATS), 2011).
Hit rate of the full screen: of about 340,000 compounds, about 530 (0.16%) were called active. This list was built around the results that the source calls inconclusive (neither active nor inactive); the mix of calls is not that of the screen. Rule as the data show it: active = activity change below about -80%; inconclusive = between about -30% and that limit; inactive = weaker than that.
% is scaled to controls: 0 for no effect and ±100 for the full control effect.

Experiment: Small Molecules that selectively kill Giardia lamblia: qHTS;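 also: parasites exposed to compound for two days anaerobically before the ATP read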
Details: Giardia lamblia trophozoite viability; at 7.66 µM; hits give low values
Procedure, shortened: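 Luminescent ATP signal served as the viability read-out, measured 15-30 min after adding ATP detection reagent to trophozoites that had been incubated with compounds for 48 hrs at 37 deg C anaerobically at 100 cells/well.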
With Cc1cccc(N(Cc2cc3ccccc3[nH]c2=O)C(=O)c2ccco2)c1C the activity change was inactive: 1.66%. For O=C(NCc1ccccc1)C1=C[C@@H](c2ccc3c(c2)OCO3)C[C@@H](OCCCCO)O1, the activity change was inconclusive: -30.7% [inhibitor]. In the case of CCOC(=O)C1CCN(C(=O)c2ccc(OC3CCN(C(=O)CCOC)CC3)cc2)CC1, the activity change is reported as inconclusive: -32.8% [inhibitor]. With CN(Cc1ccccc1)C(=O)COc1cccnc1[N+](=O)[O-] the activity change was inconclusive: -40% [inhibitor]. In the case of CCn1c(CNC(=O)COc2ccc(C(C)C)cc2)nnc1SCC(=O)Nc1ccc(F)cc1, the activity change is reported as inactive: -0.408%. In the case of Nc1c(Cl)cc(C2=NCCn3c2c2ccc(C(F)(F)F)cc2[n+]3[O-])cc1Cl, the activity change is reported as active: -93.8%. With O=C(CNC(=O)c1ccccc1F)N/N=C/c1cc(Br)ccc1OCc1ccccc1 the activity change was inconclusive: -51.9% [inhibitor]. For CC(C)[C@H](NC(=O)[C@@H]1Cc2c([nH]c3ccccc23)C2c3ccccc3C(=O)N21)C(=O)N1CCC[C@@H]1C(=O)O (stereo partly specified), the activity change was inconclusive: -35.3% [inhibitor]. For O=C(NC(=S)Nc1nc2ccccc2s1)c1ccco1, the activity change was inconclusive: -42.5% [inhibitor]. In the case of NC(=O)c1c(NC(=O)c2cccc(N3C(=O)CCC3=O)c2)sc2c1CCCCC2, the activity change is reported as inconclusive: -48.5% [inhibitor]. For COc1ccc(NC(=S)N(CCc2nc3cc(C)c(C)cc3[nH]2)Cc2cccnc2)cc1, the activity change was inconclusive: -30.4% [inhibitor]. For O=C(COc1ccc(Br)cc1)NC1CC1, the activity change was inactive: 9.38%. For Cc1ccc(NC(=O)c2ccc([N+](=O)[O-])o2)c(C)c1, the activity change was active: -90.1%. For O=S(=O)(Nc1cccc2ccccc12)c1cccc2ccccc12, the activity change was inactive: 3.23%. For CCN(CC)C(=O)[C@H]1CC(CC(=O)NCC23CC4CC(CC(C4)C2)C3)C(=O)N2CCc3c([nH]c4ccc(OC)cc34)[C@]12C (stereo partly specified), the activity change was inconclusive: -31.8% [inhibitor]. For CCC1(CC)C(=O)C2=C3C1[C@H](C(=O)OC)CC(C(=O)OC)C[C@H]3n1c(=O)n(-c3ccccc3)c(=O)n1[C@H]2C (stereo partly specified), the activity change was inconclusive: -32.7% [inhibitor]. In the case of CCOC(=O)Nc1ccc2c(CNC(C)c3ccccc3OC)cc(=O)oc2c1 (stereo unspecified), the activity change is reported as inconclusive: -43.5% [inhibitor]. In the case of O=[N+]([O-])c1cc(S(=O)(=O)N2CCCC2)ccc1N/N=C/c1ccncc1, the activity change is reported as inconclusive: -74.7% [inhibitor]. With CCOc1cc(N2CCOCC2)c(OCC)cc1NC(=O)CN1C(=O)NC(Cc2ccccc2)C1=O (stereo unspecified) the activity change was inactive: 7.07%. In the case of Cc1ccc(CSc2nc3ccncc3[nH]2)cc1, the activity change is reported as active: -90.2%. In the case of Cc1ccc2oc(/N=C(\N)NC(=O)C(C)(C)C)nc2c1, the activity change is reported as inconclusive: -70.5% [inhibitor]. With Cc1ccc(-n2c(C)cc(C(=O)COc3cccnc3[N+](=O)[O-])c2C)cc1 the activity change was inconclusive: -73.3% [inhibitor]. In the case of CCCCCCc1ccc(N2C[C@H](CCCCC)[C@@H](CC(=O)NCc3ccccc3)C2=O)cc1, the activity change is reported as inconclusive: -32% [inhibitor]. With Cc1ccc(OCC(=O)Nc2cc(S(=O)(=O)N3CCCCC3)ccc2C)c([N+](=O)[O-])n1 the activity change was inconclusive: -30.1% [inhibitor]. With CC(=O)C1C(c2ccc(O)cc2)NC(=O)NC1(O)C(F)(F)F (stereo unspecified) the activity change was inconclusive: -35.3% [inhibitor]. With CC(C)(C)OC(=O)CNC(=O)c1nc[nH]c1C(=O)N1CCN(C(=O)OC(C)(C)C)CC1 the activity change was inconclusive: -37.3% [inhibitor]. With Cc1ccc(C(=O)NNC(=O)c2cc3ccccc3cc2O)cc1 the activity change was inconclusive: -31.9% [inhibitor]. In the case of CN(Cc1ccccc1)C(=O)c1ccc(NC(=O)Cc2ccc(NC(=O)C3CCN(C(=O)C4CCC4)CC3)cc2)cc1, the activity change is reported as inconclusive: -34.5% [inhibitor]. With CSc1cccc(NC(=O)CCCOc2ccc(Cl)cc2C)c1 the activity change was inactive: 2.02%. In the case of COC(=O)c1ccc2cc(OC)cc([N+](=O)[O-])c2n1, the activity change is reported as inconclusive: -47.2% [inhibitor]. For O=C(CN1C(=O)NC2(CCCCC2)C1=O)N1CCN(S(=O)(=O)/C=C/c2ccccc2)CC1, the activity change was inconclusive: -31.6% [inhibitor]. For CC(=O)c1cccc(NC(=O)/C(=C\c2cccnc2)NC(=O)c2ccco2)c1, the activity change was inconclusive: -40.7% [inhibitor]. For CC(C)(C)C(=O)NC(=S)Nc1ccc(C(F)(F)F)cc1, the activity change was inactive: -24.8%. In the case of O=C(O)CCS(=O)(=O)c1cccc2cccnc12, the activity change is reported as inconclusive: -30.1% [inhibitor]. With CN1OC[C@@H]2CN(C(=O)CCc3ccccc3)[C@H](c3cccc(Oc4ccccc4)c3)C[C@@H]21 the activity change was inconclusive: -41.8% [inhibitor]. With COCc1cc(=O)n2c(-c3ccc(C)cc3)n[nH]c2n1 the activity change was inconclusive: -31.3% [inhibitor]. For COC(=O)C1CN(C(=O)c2cccc(OC(F)F)c2)c2ccccc2O1 (stereo unspecified), the activity change was inconclusive: -32.2% [inhibitor]. With Cc1ccc(-n2nnnc2Sc2nc([N+](=O)[O-])nn2C)c(C)c1 the activity change was inconclusive: -31.1% [inhibitor]. For COc1ccc(Oc2ccc(C(F)(F)F)cc2N)cc1, the activity change was inconclusive: -31.6% [inhibitor]. With N#Cc1c(N)nc(SCC(=O)NC2CCCCC2)c(C#N)c1-c1ccc(Cl)cc1 the activity change was inactive: -3.56%. With CC(=O)NC1(C(F)(F)F)NC(=O)N(c2ccc(F)cc2)C1=O (stereo unspecified) the activity change was inactive: 15.2%. With COc1cc(CNC(C)c2ccccc2)cc(Cl)c1OCC(=O)Nc1ccccc1 (stereo unspecified) the activity change was inconclusive: -36.1% [inhibitor]. With Cc1ccc(-c2nc(NCCN(C)C)c3ccccc3n2)cc1 the activity change was inactive: 9.33%. In the case of Cc1cc(C(C)(C)C)cc(C)c1CCNC(=O)c1ccc[n+]([O-])c1, the activity change is reported as inconclusive: -32.3% [inhibitor]. With NCCOc1ccc(C23CC4CC(CC(C4)C2)C3)cc1 the activity change was inactive: -23.5%. In the case of O=C(Nc1ccc(F)cc1)C1CCN(C(=O)c2ccc([N+](=O)[O-])cc2)CC1, the activity change is reported as inconclusive: -51.3% [inhibitor].
